From PubChem BioAssay AID686978 (National Center for Advancing Translational Sciences (NCATS), 2013)
About 64,000 (15%) of roughly 420,000 compounds were called active. The inconclusive results got no clear call from the source; some entries with a clear call stand among them for comparison. Calls come from the whole dose curve; as a rule, active = well fitted inhibition curve with a large enough effect; inconclusive = small, poorly fitted or top-dose-only effect; inactive = flat fitted curve, though single readings scatter. Potencies of inconclusive entries are left out as doubtful fits.

Assay: qHTS for Inhibitors of human tyrosyl-DNA phosphodiesterase 1 (TDP1): qHTS in cells in absence of CPT; note: nearly all actives have a fitted effect of over 55% in size
Conditions: DT40 Tdp1-/- hTDP1 cells, no CPT, ATP luminescence, 48 h; activity change, negative = growth inhibition: at 46.2 µM (top of the series) unless noted
Procedure, shortened: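 No-CPT arm: Tdp1-/-;hTDP1 DT40 cells (400/well) plus compounds, incubated ≥48 hr at 37 °C. Readout CellTiter-Glo luminescence.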
% is set by controls: 0 for no effect and ±100 for the full control effect; potency is the fitted concentration of half-maximal effect; tags give direction and shape of the fitted curve.

Row | Structure (SMILES) | Potency | activity change, negative = growth inhibition
1 | CCCCN(c1ccccc1)S(=O)(=O)c1cccc2cccnc12 | active: 14.6 µM | 
2 | CSc1ccc(C(=O)C2CCCN(Cc3cccc4nccnc34)C2)cc1 (stereo not given) | inconclusive [inhibitor, single point] | 
3 | CN1CCN(c2ccc(S(=O)(=O)N3CCCCC3)cc2NC(=O)c2ccc(F)cc2F)CC1 | inconclusive [inhibitor, single point] | 
4 | O=C(c1ccncc1)N1N=C(C2CCCCC2)CC1(O)C(F)(F)F (stereo not given) | active: 4.61 µM | 
5 | COc1ccccc1C(=O)NC(C)C(c1cccs1)N1CCOCC1 (stereo not given) | inconclusive [inhibitor, single point] | 
6 | Cc1ccccc1CNC(=O)c1ccccc1SCC(=O)NCc1ccco1 | inconclusive [inhibitor, single point] | 
7 | COC(=O)c1c(NC(=O)CSc2nc(-c3ccco3)cc(C(F)(F)F)n2)sc2c1CCCC2 | inconclusive [inhibitor, single point] | 
8 | CCN(CC(=O)Nc1c(F)cccc1F)C(=O)c1cccc(S(=O)(=O)N(C)c2ccccc2)c1 | active: 14.6 µM | 
9 | Cc1ccccc1N(C(=O)c1snc(C(N)=O)c1N)C(C(=O)NC1CCCCC1)c1ccc(O)cc1 (stereo not given) | inconclusive [inhibitor, single point] | 
10 | Cc1ccc(NC(=O)C(=O)NNC(=O)c2cccs2)cc1 | inconclusive [inhibitor, single point] | 
11 | C[C@@H]1CN([C@H](C)CO)C(=O)CCCn2nncc2CO[C@H]1CN(C)S(=O)(=O)c1ccc(F)cc1 |  | inconclusive: -29.6% [inhibitor]
12 | O=[N+]([O-])c1ccc(OCc2cn([C@@H](CO)c3ccccc3)nn2)c(Br)c1 | inactive | 
13 | C=C(C)[C@H]1CC=C(C)C(=O)C1 | inactive | 
14 | COc1ccc(-c2csc3nc(C)nc(N4CCN(c5ccc(C(C)=O)cc5)CC4)c23)cc1OC | inconclusive [inhibitor, single point] | 
15 | CCCCCN(C(=O)CCC(=O)OCCOc1ccccc1Cl)c1c(N)n(CCCC)c(=O)[nH]c1=O | inconclusive [inhibitor, single point] | 
16 | O=C(c1cc2sccc2n1Cc1ccccc1)N1CCCc2ccccc21 | inconclusive [inhibitor, single point] | 
17 | Cc1cn([C@H]2C[C@H](O)[C@@H](CNCc3ccc(F)c(N4CCOCC4)c3)O2)c(=O)[nH]c1=O | inactive | 
18 | Cc1cccc(-c2nn(-c3ccccc3)cc2C(=O)Nc2cccc(S(=O)(=O)NC3=NCCC3)c2)c1 | inconclusive [inhibitor, partial curve] | 
19 | O=c1cc(-c2ccccc2)c2ccc3c(c2o1)CN(Cc1cccc(Cl)c1)CO3 | inconclusive [inhibitor, single point] | 
20 | CCC(C(=O)NC(C)CCc1ccccc1)n1nc(C)n2c(cc3occc32)c1=O (stereo not given) | inconclusive [inhibitor, single point] | 
21 | c1ccc2nc3c(cc2c1)CCCCCC3 | inactive | 
22 | Cc1cccc(N2C(=O)C(Cl)=C(N3CCOCC3)C2=O)c1 | inactive | 
23 | COC(=O)c1ccc2c(c1)C(C)(C)C(/C=C/c1ccc(OC)c(OC)c1OC)=[N+]2C | active: 0.651 µM | 
24 | COc1ccc(OC)c(CN2CCN(C(=O)c3cc(S(=O)(=O)Nc4ccccc4OC)ccc3C)CC2)c1 | inconclusive [inhibitor, partial curve] | 

Row | Structure (SMILES) | Potency | activity change, negative = growth inhibition
25 | CCOC(=O)Cc1csc(NC(=O)/C=C/c2ccccc2Cl)n1 | inconclusive [inhibitor, single point] | 
26 | C=CCn1c(SCC(=O)Nc2sccc2C(N)=O)nc2ccc(Cl)cc2c1=O | active: 16.4 µM | 
27 | CC(C)Cn1c(SCc2nc3ccccc3c(=O)[nH]2)nc2ccccc2c1=O | inconclusive [inhibitor, single point] | 
28 | Cc1c(NC(=O)COC(=O)/C=C/c2ccc(Cl)cc2)c(=O)n(-c2ccccc2)n1C | inactive | 
29 | COc1ccc2nc(NC(=O)Cc3ccc(OC)c(S(=O)(=O)N4CCOCC4)c3)sc2c1 | inconclusive [inhibitor, single point] | 
30 | Cc1ccc(O)c(N=Cc2sc3ccccc3c2Cl)c1 | inconclusive [inhibitor, single point] | 
31 | CCN(CC)CCCNc1nc2ccccc2c2[nH]c3ccc(OC)cc3c12 | active: 2.91 µM | 
32 | CCSc1nn2c(=O)c3ccccc3nc2s1 | inconclusive [inhibitor, single point] | 
33 | CN(Cc1ccno1)Cc1cn(Cc2ccccc2)nc1-c1ccc2c(c1)OCO2 | inconclusive [inhibitor, single point] | 
34 | COc1ccc(N(CC(=O)NC(C)(C)C)C(=O)CCC(=O)Nc2nccs2)cc1 | inactive | 
35 | COC(=O)c1ccc(-c2nc(O)c(C)s2)cc1 | inconclusive [inhibitor, partial curve, poor fit] | 
36 | COc1ccccc1C1C2=C(N=C3SCC(=O)N31)c1ccccc1CC2 (stereo not given) | inconclusive [inhibitor, single point] | 
37 | COc1ccc(N(C(=O)CNC(=O)c2ccco2)C(C(=O)NC2CCCCC2)c2cccnc2)cc1 (stereo not given) | inactive | 
38 | Cn1c2ccccc2c2ncn(Cc3ccco3)c(=O)c21 | inactive | 
39 | Cc1cc(C)nc(N/C(=N/S(=O)(=O)Cc2ccccc2)Nc2ccccc2)n1 | inconclusive [inhibitor, single point] | 
40 | C=C(C)CSc1nc2sc3c(c2c(=O)n1Cc1ccccc1)CC(C)(CC)OC3 (stereo not given) | active: 11.6 µM | 
41 | COc1ccc(N2C(=NC(=O)C3CCCCC3)SC3CS(=O)(=O)CC32)cc1 (stereo not given) | inactive | 
42 | OC(c1ccc(F)c(F)c1)c1nc(-c2ccc(Cl)cc2)cs1 (stereo not given) | active: 16.4 µM | 
43 | Cc1c(C(=O)Nc2ccccc2Br)oc2ccc(S(=O)(=O)N3CCCCCC3)cc12 | inconclusive [inhibitor, full curve] | 
44 | CCn1c2ccccc2c2cc(NC(=O)c3ccccc3[N+](=O)[O-])ccc21 | active: 23.1 µM | 
45 | COc1ccc(C(=O)Nc2cccc(/C=C(/CCC(=O)O)c3nc4ccccc4s3)c2)cc1 | inconclusive [inhibitor, single point] | 
46 | COc1ccccc1NC(=O)C1CCN(S(=O)(=O)c2cccc3nonc23)CC1 | inactive | 
47 | COc1ccc(Cl)cc1NC(=O)c1c(NCc2ccc(C)o2)sc2c1CCC(C)C2 (stereo not given) | active: 16.4 µM | 
48 | Cc1cc(C(=O)Nc2ccc(S(=O)(=O)N3CCCC3)cc2)cs1 | inconclusive [inhibitor, single point] | 

Row | Structure (SMILES) | Potency | activity change, negative = growth inhibition
49 | Cc1ccc(-c2cn3cccnc3n2)cc1NC(=O)C(C)(C)Oc1ccc(Cl)cc1 | active: 18.4 µM | 
50 | N#Cc1cccc(-c2cc(NCc3ccccc3)ncn2)c1 | inconclusive [inhibitor, partial curve] | 
51 | COc1ccc(Cl)cc1-c1cc(C(=O)Nc2ccc(F)cc2)[nH]n1 | inactive | 
52 | Cn1c(NCCN2CCCC2)nc2cc(-c3ccsc3)sc2c1=O | active: 14.6 µM | 
53 | CC1=C(C(=O)c2ccccc2)C(c2cccc([N+](=O)[O-])c2)NC(=S)N1 (stereo not given) | inconclusive [inhibitor, partial curve] | 
54 | C[C@]12CCC(=O)C=C1[C@@H]1C[C@@H]1[C@H]1[C@@H]3[C@@H]4C[C@@H]4[C@@]4(CCC(=O)O4)[C@@]3(C)CC[C@@H]12 | active: 7.5 µM | 
55 | COc1cccc(NCc2cccn2-c2nnc(N3CCC(C)CC3)s2)c1 | inconclusive [inhibitor, single point] | 
56 | CCCn1ncc(CN2CCC(C(=O)Nc3cccc(-c4cccc(F)c4)c3)CC2)c1C | inconclusive [inhibitor, single point] | 
57 | Cc1ccccc1N(CC(=O)NCc1ccccc1)C(=O)CCC(=O)Nc1nccs1 | inconclusive [inhibitor, single point] | 
58 | O=C(NCC(=O)N1CC=C(c2ccccc2)CC1)c1ccc(OC(F)F)cc1 | active: 7.31 µM | 
59 | CCN1C[C@@H]2[C@@H]3C(=O)N(Cc4ccccc4)C(=O)[C@@H]3[C@](Cc3ccccc3)(C1=O)N2C(=O)c1ccccc1 |  | inconclusive: -32.4% [inhibitor]
60 | Cc1c(NC(=O)c2ccccc2N(C)S(=O)(=O)c2ccccc2)c(=O)n(-c2ccccc2)n1C | inactive | 
61 | CN(C(=O)c1cccc(NC(=O)C2CCN(C(=O)OC(C)(C)C)CC2)c1)C1CCC1 | inactive | 
62 | CC1(C)CC(=O)C2=C(C1)NC(SCC(=O)Nc1ccccc1)=C(C#N)C21CCCCC1 | inconclusive [inhibitor, single point] | 
63 | CN(C(=O)COC(=O)c1ccc2c(=O)n3c(nc2c1)CCC3)c1ccccc1 | inconclusive [inhibitor, single point] | 
64 | Cc1ccc(-n2nc3ccc(NC(=O)c4cc5ccccc5o4)cc3n2)cc1 | inconclusive [inhibitor, partial curve] | 
65 | CCNC(=O)CN(c1ccc(CC)cc1)S(C)(=O)=O | inactive | 
66 | COc1ccc(S(=O)(=O)NCCOc2cccc3cccnc23)cc1OC | inactive | 
67 | CCN(C(=O)COC(=O)CCCN1C(=O)c2cccc3cccc(c23)C1=O)C1CCS(=O)(=O)C1 (stereo not given) | inactive | 
68 | CCC(=O)Nc1sc2c(c1C(=O)Nc1ccccc1C)CCC(C)C2 (stereo not given) | inconclusive [inhibitor, single point] | 
69 | NS(=O)(=O)c1ccc(CCNS(=O)(=O)Cc2ccc(Cl)cc2)cc1 | inactive | 
70 | CCOc1ccc(NC(=O)CN(C)C(=O)c2c(-c3ccccc3Cl)noc2C)cc1OCC | inconclusive [inhibitor, single point] | 
